# Test results taken from PubChem BioAssay AID485344 (National Center for Advancing Translational Sciences (NCATS), 2010).
# Out of some 340,000 compounds screened, about 6,900 (2%) were called active. No stated cut-off is given here; in the data, active means inhibition above about 30%; inactive means below that, where a call was filed. The list shows a part of the results, in another mix than the full data. Where no call is shown, the source filed none.
# Molecular target: D(2) dopamine receptor (Homo sapiens) (UniProt P14416)
# UniProt P14416, sequence (P14416 whole entry, looked up): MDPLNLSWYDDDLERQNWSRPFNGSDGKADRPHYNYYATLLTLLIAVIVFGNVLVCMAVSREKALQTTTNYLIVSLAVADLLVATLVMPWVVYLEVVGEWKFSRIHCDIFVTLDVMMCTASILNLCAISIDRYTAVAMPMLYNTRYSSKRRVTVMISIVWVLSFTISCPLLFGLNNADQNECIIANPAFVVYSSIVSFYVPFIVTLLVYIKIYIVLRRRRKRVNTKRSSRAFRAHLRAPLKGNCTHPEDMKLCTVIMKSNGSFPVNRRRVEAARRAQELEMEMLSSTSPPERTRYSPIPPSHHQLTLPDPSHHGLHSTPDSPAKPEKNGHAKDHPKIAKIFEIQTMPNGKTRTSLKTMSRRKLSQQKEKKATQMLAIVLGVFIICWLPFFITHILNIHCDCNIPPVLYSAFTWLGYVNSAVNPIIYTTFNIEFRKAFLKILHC
# Test: HTS Assay for Allosteric Antagonists of the Human D2 Dopamine Receptor: Primary Screen for Antagonists; further: 0% is about no effect
# Settings: HEK293 TREx D2 cells, calcium flux, dopamine EC80; at 10 µM; stronger effect = higher value
# Method in brief: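 Dopamine at EC80 is the agonist stimulus; test compounds precede it by 180 s. Calcium flux read kinetically in a force-coupled, inducible HEK293 T-REx D2 cell line.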
row,Structure (SMILES),inhibition
1,CCOc1ccc(N2CC(C(=O)NCCc3ccc(S(N)(=O)=O)cc3)CC2=O)cc1 (configuration not stated),active: 37.8%
2,C/C(=N\NC(=O)c1nnn(-c2nonc2N)c1-c1ccc2c(c1)OCO2)c1cccs1,active: 36.8%
3,CC(=O)N1CCCc2cc(S(=O)(=O)N3CCCC(C(=O)Nc4cccc(F)c4)C3)ccc21 (configuration not stated),4.58%
4,O=c1c2cc3c(cc2n(Cc2cccc(Cl)c2)c(=O)n1Cc1nc(-c2ccccc2)no1)OCO3,10.2%
5,COc1ccc(N2CCN(C(=O)c3ccc(Nc4nc5ccccc5n5nnnc45)cc3)CC2)cc1,-17.1%
6,CCOc1ccc(NC(=O)CSc2ncc3c(n2)-c2cc(Cl)ccc2N(C)S3(=O)=O)cc1,-1.08%
7,CCN(CC(=O)NCc1ccc(Cl)cc1)C(=O)COc1cccc(Cl)c1,active: 33.1%
8,CC1=C(C(=O)NCc2ccc(C)cc2)C2(CCCCC2)OC1=O,17.4%
9,Cc1ccc2cccc(NC(=O)C(C)Oc3ccc(C)c(C)c3)c2n1 (configuration not stated),19.1%
10,Cc1noc(Cn2c(=O)c3ccccc3n(CC(=O)Nc3ccc(Cl)cc3)c2=O)n1,7.28%
11,O=C(Nc1cc(Cl)ccc1Cl)C1(c2cccs2)CCOCC1,17.3%
12,CC(=O)Nc1ccc(S(=O)(=O)NC2(C(F)(F)F)C(=O)Nc3c2c(=O)[nH]c(=O)n3-c2ccc(C)c(C)c2)cc1 (configuration not stated),-9.34%
13,Cc1cccc(NC(=O)CCNS(=O)(=O)c2cccc3nonc23)c1,-7.22%
14,CCN1c2ccccc2-c2nc(SCC(=O)Nc3c(C)cc(C)cc3C)ncc2S1(=O)=O,3.23%
15,CCN(CC)CCOC(=O)c1ccc(Cl)cc1Cl,active: 32.7%
16,COc1cccc(-n2c(-c3ccco3)nc3c(cnn3-c3ccc(C)cc3)c2=O)c1,13.8%
17,Cc1ccc(C(=O)CSc2nnc(-c3ccccc3)n2-c2ccccc2)cc1,0.85%
18,CCOc1ccc(C(=O)c2cn(Cc3ccc(OC)cc3)c3cc(OC)c(OC)cc3c2=O)cc1,-10.2%
19,CCOc1ccc(NS(=O)(=O)c2ccc3[nH]cc(C(=O)NC4CCCC4)c(=O)c3c2)cc1,-2.48%
20,CC(NC(=O)c1cccc(NC(=O)c2nsc3ccccc23)c1)c1ccccc1 (configuration not stated),4.38%
21,COc1ccc2c(c1)Cc1sc(NC(=O)c3cccc(F)c3)nc1-2,-11.7%
22,Cc1ccc(/C=N/Nc2nncc(-c3ccccc3)n2)o1,active: 50.6%
23,Cc1cc(NC(=O)c2ccccc2)ncc1NC(=O)c1cccs1,active: 36.4%
24,COc1ccc(C(=O)Nc2ccc3oc(-c4ccc(OC)cc4)nc3c2)cc1,-23.4%
25,CCc1cccc(NC(c2nnc(-c3ccccc3)o2)c2ccc(F)cc2Cl)c1 (configuration not stated),-1%

row,Structure (SMILES),inhibition
1,Cc1ccc(NC(=O)NCC2CCN(Cc3cccc(Cl)c3)CC2)cc1Cl,17.5%
2,CCCC(=O)Nc1cc(-c2nc3cccnc3s2)ccc1C,6.99%
3,Cc1ccccc1OCC(=O)Nc1ccc2nc(SCCOc3ccccc3)sc2c1,-21.4%
4,O=C(CSc1nc2ccccc2nc1Cc1ccc(Cl)cc1)N1CCN(c2ccccc2F)CC1,-28.1%
5,O=[N+]([O-])c1ccccc1/C=C/CN1CCCC(CO)C1 (configuration not stated),active: 35.4%
6,Cc1ccc(C)c(N2CCN(C(=O)CCCCCn3c(=O)[nH]c4ccccc4c3=O)CC2)c1,-0.529%
7,Cc1ccc(C)c(Cn2c(SCC(=O)N(C)Cc3ccccc3)nc3ccccc32)c1,-22%
8,CCc1ccccc1NC(=O)C(=O)NCC(c1cccnc1)N1CCc2ccccc21 (configuration not stated),-25.7%
9,Cc1ccc(-c2nnc(Nc3ccc(S(N)(=O)=O)cc3)c3ccccc23)cc1S(=O)(=O)N1CCOCC1,-3.29%
10,CCOc1ccc(-c2cc(C(=O)N3CCN(c4cccc(C)c4)C(C)C3)c3ccccc3n2)cc1 (configuration not stated),20.1%
11,Fc1ccc(C(c2ccc(F)cc2)N2CCN(C/C=C/c3ccccc3)CC2)cc1,active: 64.5%
12,Cc1ccc(N2CC(C(=O)NCc3nnnn3-c3ccc(C)c(C)c3)CC2=O)cc1C (configuration not stated),13.4%
13,CC(C)c1ccc2oc(-c3cc(NC(=O)c4cccnc4)ccc3Cl)nc2c1,21%
14,COc1cc(C(=O)NCC(c2ccc3c(c2)OCO3)N2CCN(C)CC2)cc(OC)c1OC (configuration not stated),8.2%
15,COc1cccc2c1cc1c(=O)n(CC(=O)NCc3ccc(N(C)C)cc3)nc(C)n12,0.255%
16,O=C(O)c1ccc(NS(=O)(=O)c2ccc(N3C(=O)CCC3=O)cc2)cc1,active: 38.7%
17,CCC1CCCCN1CCCNC(=O)c1c(C)oc2ncn(CC(C)C)c(=O)c12 (configuration not stated),7.49%
18,COc1cccc(NC(=O)c2sc3nc(C)c(C(=O)Nc4ccc(C)cc4C)c(-c4ccc(C)o4)c3c2N)c1,0.558%
19,O=c1n(Cc2ccc(Cl)cc2)nc2n1-c1ccccc1OC2,18.6%
20,COc1ccc(CCC(C)NC2C3CC4CC(C3)CC2C4)cc1 (configuration not stated),active: 40%
21,COc1cc(O)ccc1-c1nc2cc(C)ccn2c1Nc1ccccc1C,-1.76%
22,CN1CCc2c(c3ccccc3n2Cc2ccccc2)C1,active: 32.9%
23,CCc1ccc(S(=O)(=O)Nc2cccc(-c3ccc(OC)nn3)c2)s1,-15.9%
24,Cc1cccc2c(=O)cc(CSc3ccccc3NC(=O)c3cccc(Br)c3)[nH]c12,8.89%
25,COc1ccc(NC(=O)CSc2nc3nc(C)cc(C)n3n2)cc1OC,-6.3%

row,Structure (SMILES),inhibition
1,O=C(Nc1cccc(F)c1)C1CCN(S(=O)(=O)c2ccc3[nH]c4c(c3c2)CCCCC4)CC1,2.79%
2,O=C(NCc1cccc(Cl)c1)c1ccc2c(Cl)c3c(nc2c1)CCCC3,-1.44%
3,COc1ccc(CCN2C(=O)N(c3ccc(C)cc3)C(=O)C2CC(=O)Nc2ccc(OC)cc2)cc1 (configuration not stated),-5.97%
4,COc1cc(NC(=O)c2cc(S(=O)(=O)N3CCC(C)CC3)cn2C)cc(OC)c1OC,-21.7%
5,CCOC(=O)C1CCCN(C(=O)Cn2ncc3c4ccccc4n(C)c3c2=O)C1 (configuration not stated),5.54%
6,Cc1cccc(NC(=O)CN2C(=O)CC(c3ccccc3)Sc3ccccc32)c1 (configuration not stated),6.96%
7,Cc1ccc(NC(=O)CCc2c(C)nc3ncnn3c2C)cc1Cl,7.84%
8,Cc1ccccc1NC(=O)Cn1nnc(C(=O)NCc2cccs2)c1N,10.6%
9,Cc1ccc(C)c(CSc2cn(CCNC(=O)c3cccs3)c3ccccc23)c1,-0.522%
10,CCc1ccc(NS(=O)(=O)c2ccc(NC(=O)N3CCCC3)cc2)cc1,22.4%
11,CSCCC(N=C1NS(=O)(=O)c2ccccc21)C(=O)NCCc1ccccc1 (configuration not stated),active: 42%
12,Cc1ccc(OCCN2CCN(CC(O)Cn3c4ccccc4c4ccccc43)CC2)cc1 (configuration not stated),active: 62.7%
13,Cc1ccc(CSc2nc3cc(C(=O)NC4CCCC4)ccc3c(=O)n2Cc2ccccc2)cc1,-3.03%
14,CC(CNC(=O)c1csc2c1CCCCC2)c1ccccc1 (configuration not stated),4.66%
15,O=C(Nc1cccc(O)c1)c1cc(-c2ccccc2F)no1,-24.5%
16,CCc1ccc(NC(=O)Cn2nnc(C(=O)Nc3ccc(F)cc3)c2N)cc1,-11%
17,N#Cc1ccc(NC(=O)c2ccc3c(c2)nnn3C2CCCC2)cc1,-9.44%
18,CCCS(=O)(=O)N1CC(=O)N(c2cc(C)cc(C)c2)C(C)(C(=O)NC2CCCCCC2)C1 (configuration not stated),12.8%
19,CCC(Sc1ncnc2sc3c(c12)CCCC3)C(=O)OCC(C)C (configuration not stated),4.72%
20,CCOc1ccccc1C(=O)Nc1cc(-c2nc3cccnc3s2)ccc1C,-14.7%
21,COc1ccc(Nc2oc(-c3ccc(COc4ccccc4)o3)nc2C#N)cc1,16.4%
22,COc1ccc(-n2c(SCc3nc(-c4ccc(Cl)cc4)no3)nnc2-c2ccncc2)cc1,-5.2%
23,CCOc1ccc(-c2cc(CCCC(=O)NCCc3ccc(OC)c(OC)c3)no2)cc1,2.46%
24,O=C(O)COc1ccccc1C1Nc2ccccc2-c2nnc(SCc3ccc(Cl)cc3)nc2O1 (configuration not stated),16.9%
25,Cc1ccc(C)c(N2CCN(C(=O)C3CCC(CNS(=O)(=O)c4ccc(Br)s4)CC3)CC2)c1 (configuration not stated),-13.2%

row,Structure (SMILES),inhibition
1,COc1cccc(NC(=O)Cn2c(=O)n(CCCCC(=O)NCc3ccc4c(c3)OCO4)c(=O)c3ccccc32)c1,-2.32%
2,Cc1c(NC(=O)C(F)(F)F)ccc2nc3c(=O)n(C)c(=O)n(C)c3nc12,-26.9%
3,CCc1ccccc1NC(=O)c1cnn(-c2ccc(F)cc2)c1C1CCNCC1,-3.97%
4,COc1ccc(-c2cc(-c3ccc4c(c3)NC(=O)CO4)nc3c2COc2ccc(C)cc2-3)cc1,10.2%
5,COc1ccc(-n2ncc(C(=O)NCCCN3CCCCC3)c2C2CCN(C(=O)OC(C)(C)C)CC2)cc1,4.67%
6,COc1c(Cl)cc(Cl)cc1/C=C(\C#N)c1nc(-c2ccc(Cl)cc2)cs1,-0.299%
7,CCOCCCNC(=O)Cn1cc2c(n1)-c1c(oc(C(=O)N3CCCC3)c1C)CC2,-9.98%
8,Cc1cccc(OCCOCCn2c(-c3ccc(Cl)cc3)nc3ccccc3c2=O)c1C,1.6%
9,COC(=O)Cn1ccc2cc(S(=O)(=O)N3CCCCC3)ccc21,-16.6%
10,Cc1ccccc1NC(=O)c1ccc(F)c(S(=O)(=O)N2CCc3ccccc3C2)c1,-17.5%
11,Cc1ccc(C(C)C)c(OCCCn2c(=O)oc3ccc(C)cc32)c1,5.9%
12,CN(C)NC(=S)Nc1cccc(Cl)c1,active: 44.6%
13,CCOc1cccc(C(=O)Nc2ccc(-c3nc4cc(C)cc(C)c4o3)cc2)c1,-6.98%
14,CCc1ccccc1NC(=O)NC1CC2CCC(C1)N2Cc1ccco1 (configuration not stated),active: 32.3%
15,CCCCN(Cc1ccco1)C(=O)c1cc2c(s1)-c1c(C)cccc1OC2,-7.8%
16,CCOC(=O)c1ccccc1NC(=O)c1nn(-c2ccc(C)cc2)c(=O)n(C)c1=O,5.71%
17,CCc1ccc(S(=O)(=O)N2CCN(c3ccc(Cl)c(Cl)c3)CC2)cc1,1.86%
18,CCn1c(=O)cc(SCC(=O)Nc2cc(Cl)ccc2OC)c2ccccc21,-10.7%
19,Cc1ccc(C(=O)Nc2nnc(S(=O)(=O)N(C)Cc3ccc(F)cc3)s2)cc1,-1.84%
20,CCOc1ccc(-c2nnc(SCC(=O)Oc3ccccc3)o2)cc1,2.08%
21,Cc1nc(NS(=O)(=O)c2ccccc2)sc1NC(=O)Nc1ccccc1,active: 55.3%
22,CSc1ccc(NC(=O)NCCCN2CCN(c3ccccc3F)CC2)cc1,active: 100%
